In article PMC4336329 (PLoS ONE, 2015):
Screen size: about 310,000 compounds; about 2,200 (0.71%) showed an effect of 50% or more. Effects have a minus sign here. The list shows a part of the results.

target: human ether-à-go-go-related gene (hERG) potassium channel (human, UniProt Q12809); assay: primary screen, population patch clamp on CHO cells stably expressing hERG
Sequence (Q12809 whole entry, looked up): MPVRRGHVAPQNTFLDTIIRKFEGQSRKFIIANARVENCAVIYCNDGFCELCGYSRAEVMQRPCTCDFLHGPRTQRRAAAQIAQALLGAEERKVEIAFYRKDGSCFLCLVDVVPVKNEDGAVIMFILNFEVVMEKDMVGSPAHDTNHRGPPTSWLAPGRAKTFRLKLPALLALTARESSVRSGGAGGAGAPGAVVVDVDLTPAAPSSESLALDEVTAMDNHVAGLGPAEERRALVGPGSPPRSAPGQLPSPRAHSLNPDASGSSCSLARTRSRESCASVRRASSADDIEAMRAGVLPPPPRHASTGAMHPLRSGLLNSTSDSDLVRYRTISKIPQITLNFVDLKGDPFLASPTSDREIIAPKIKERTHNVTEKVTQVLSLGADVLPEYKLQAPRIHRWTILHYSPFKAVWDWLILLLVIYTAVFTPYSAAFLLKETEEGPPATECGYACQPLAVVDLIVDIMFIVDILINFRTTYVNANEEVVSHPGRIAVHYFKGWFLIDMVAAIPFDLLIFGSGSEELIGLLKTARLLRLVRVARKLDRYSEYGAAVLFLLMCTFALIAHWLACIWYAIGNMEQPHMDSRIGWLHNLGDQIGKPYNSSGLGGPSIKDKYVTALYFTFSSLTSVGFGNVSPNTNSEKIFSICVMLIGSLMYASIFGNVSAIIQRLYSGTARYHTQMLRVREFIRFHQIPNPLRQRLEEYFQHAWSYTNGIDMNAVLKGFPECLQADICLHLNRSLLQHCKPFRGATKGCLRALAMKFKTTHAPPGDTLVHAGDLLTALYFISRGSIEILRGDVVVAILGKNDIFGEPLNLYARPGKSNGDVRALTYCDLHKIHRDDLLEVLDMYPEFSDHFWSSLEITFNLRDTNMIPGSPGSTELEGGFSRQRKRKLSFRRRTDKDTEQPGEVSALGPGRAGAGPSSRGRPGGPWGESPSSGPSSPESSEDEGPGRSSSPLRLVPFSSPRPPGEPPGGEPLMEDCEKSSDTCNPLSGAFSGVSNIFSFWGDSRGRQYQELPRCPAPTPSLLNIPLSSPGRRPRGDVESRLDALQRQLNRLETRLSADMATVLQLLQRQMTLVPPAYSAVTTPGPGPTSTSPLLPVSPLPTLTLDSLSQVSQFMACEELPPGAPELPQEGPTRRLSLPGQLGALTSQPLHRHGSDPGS

Question: How did the “hERG current change (%, negative = inhibition) at 1uM” value turn out when `c1ccc2c(c1)nc(N1CCOCC1)c1nncn12` was run?
Answer: -6.2%

Question: Which “hERG current change (%, negative = inhibition) at 1uM” value does the source give for `CC(C)CN1CCC(C(=O)NCC2CCCO2)CC1.O=C(O)C(=O)O` (stereo not shown) here?
Answer: 3.58%

Question: Which “hERG current change (%, negative = inhibition) at 1uM” value does the source give for `CC(NC(=O)CCCCCCN1C(=O)c2ccccc2C1=O)c1ccc2c(c1)CCCC2` (stereo not shown) here?
Answer: 10.7%

Question: Which “hERG current change (%, negative = inhibition) at 1uM” value does the source give for `Cc1ccc(NS(=O)(=O)c2ccc(C)c(C(=O)N3CCOCC3)c2)cc1` here?
Answer: 6.95%

Question: How did the “hERG current change (%, negative = inhibition) at 1uM” value turn out when `CC(=O)OCc1ccccc1Sc1ccccc1C(=O)NCc1ccccc1` was run?
Answer: 8.25%

Question: `CSCCC(Nc1ccc(S(=O)(=O)N2CCOCC2)cc1[N+](=O)[O-])C(=O)OCC(=O)N(C(C)C)C(C)C` (stereo not shown) was tested. Which “hERG current change (%, negative = inhibition) at 1uM” value did it give?
Answer: -0.777%

Question: `COc1ccc(Cc2nc(-c3ccncc3)no2)cc1` was tested. Which “hERG current change (%, negative = inhibition) at 1uM” value did it give?
Answer: 2.33%

Question: How did the “hERG current change (%, negative = inhibition) at 1uM” value turn out when `CCOP(=O)(OCC)c1nc(-c2cccc3ccccc23)oc1N1CCOCC1` was run?
Answer: 9.37%

Question: For `N#Cc1cn(-c2ccccc2)nc1-c1ccc2c(c1)OCCO2`, which “hERG current change (%, negative = inhibition) at 1uM” value is on record?
Answer: 13.3%

Question: Which “hERG current change (%, negative = inhibition) at 1uM” value does the source give for `O=[N+]([O-])c1cc(S(=O)(=O)N2CCCC2)ccc1SCCO` here?
Answer: 2.97%

Question: With `Cc1cc(-n2c(C)cc(C(=O)CSc3nnnn3-c3ccc(Cl)cc3)c2C)no1` as the compound, how does the “hERG current change (%, negative = inhibition) at 1uM” value read?
Answer: 9.82%

Question: For `O=C(CSc1nc2ccccc2s1)NC1CCCC1`, which “hERG current change (%, negative = inhibition) at 1uM” value is on record?
Answer: 5.36%

Question: Which “hERG current change (%, negative = inhibition) at 1uM” value does the source give for `CSC1=NSC2=NC(=O)/C(=C\c3ccc(OC(=O)c4ccco4)cc3)C(=N)N12` here?
Answer: 5.28%

Question: How did the “hERG current change (%, negative = inhibition) at 1uM” value turn out when `COC(=O)CSc1nnc(CNC(=O)c2ccc(OC)cc2OC)n1C` was run?
Answer: -2.35%

Question: For `Cc1ccc(C)c(CSc2nnc(-c3cccnc3)n2N)c1`, which “hERG current change (%, negative = inhibition) at 1uM” value is on record?
Answer: 8.55%

Question: How did the “hERG current change (%, negative = inhibition) at 1uM” value turn out when `COC(=O)C1=C(C)NC(=O)CC1c1ccccc1F` (stereo not shown) was run?
Answer: 7.53%

Question: With `FC(F)(F)c1cccc(NC(=S)NCc2ccc(Cl)cc2)c1` as the compound, how does the “hERG current change (%, negative = inhibition) at 1uM” value read?
Answer: 10.9%

Question: `CNC(=O)CN1C(=O)NC(Cc2c[nH]c3ccccc23)C1=O` (stereo not shown) was tested. Which “hERG current change (%, negative = inhibition) at 1uM” value did it give?
Answer: -7.61%

Question: `Cn1c(O)c(C=NC2CCN(Cc3ccccc3)CC2)c(=O)[nH]c1=O` was tested. Which “hERG current change (%, negative = inhibition) at 1uM” value did it give?
Answer: 4.52%

Question: `CCN1CCc2c(OCc3ccc(C(=O)OC)o3)cccc2C1=O` was tested. Which “hERG current change (%, negative = inhibition) at 1uM” value did it give?
Answer: 7.05%

Question: Which “hERG current change (%, negative = inhibition) at 1uM” value does the source give for `COc1ccc(-c2cnn(-c3ccccc3)c2N)cc1OC` here?
Answer: 7.37%

Question: With `Cc1ccc(S(=O)(=O)Nc2ncnc3ccccc23)cc1` as the compound, how does the “hERG current change (%, negative = inhibition) at 1uM” value read?
Answer: 10.6%

Question: `COCCCNC(=O)C1CCCN(S(=O)(=O)c2ccc(C)cc2)C1` (stereo not shown) was tested. Which “hERG current change (%, negative = inhibition) at 1uM” value did it give?
Answer: -0.61%

Question: Which “hERG current change (%, negative = inhibition) at 1uM” value does the source give for `CC(C)(C)c1nc(SCC(=O)NCc2cccs2)c2ccccc2n1` here?
Answer: 4.7%

Question: How did the “hERG current change (%, negative = inhibition) at 1uM” value turn out when `Cc1ccc(C(=O)NC(C(=O)OCc2cn3cc(Cl)ccc3n2)C(C)C)cc1` (stereo not shown) was run?
Answer: 6.5%

Question: For `CN1C(=O)/C(=C\c2ccc(Br)s2)C(=O)NC1=S`, which “hERG current change (%, negative = inhibition) at 1uM” value is on record?
Answer: 16.1%

Question: With `Br.O=C(Cn1c(NCCCO)nc2ccccc21)c1cccs1` as the compound, how does the “hERG current change (%, negative = inhibition) at 1uM” value read?
Answer: -4.05%

Question: Which “hERG current change (%, negative = inhibition) at 1uM” value does the source give for `O=C(CN1C(=O)C(=O)c2ccccc21)NCCc1ccccc1` here?
Answer: 9.49%

Question: With `CC(=O)c1cccc(S(=O)(=O)N(C)C2CCN(C)CC2)c1.Cl` as the compound, how does the “hERG current change (%, negative = inhibition) at 1uM” value read?
Answer: -0.127%

Question: How did the “hERG current change (%, negative = inhibition) at 1uM” value turn out when `CCCOc1ccccc1/C=C1/C(=O)ON=C1C` was run?
Answer: 11.8%

Question: Which “hERG current change (%, negative = inhibition) at 1uM” value does the source give for `CC1=C(C(=O)OC(C)C)C(c2ccc(C)o2)NC(=O)N1` (stereo not shown) here?
Answer: -5.32%

Question: With `CC(C)Cc1nnc(NC(=O)c2ccncc2)s1` as the compound, how does the “hERG current change (%, negative = inhibition) at 1uM” value read?
Answer: -6.33%

Question: For `CCOc1ccc(NC(=O)N2CCC(c3ccc(C)cc3)C2)cc1` (stereo not shown), which “hERG current change (%, negative = inhibition) at 1uM” value is on record?
Answer: 12.8%

Question: How did the “hERG current change (%, negative = inhibition) at 1uM” value turn out when `CC(=O)N1CN2CN(C(C)=O)CC(C(=O)c3ccc([N+](=O)[O-])cc3)(C2)C1` was run?
Answer: 0.729%

Question: `O=C(c1cc(COc2ccc(F)cc2Cl)on1)N1CCN(C2CCCC2)CC1` was tested. Which “hERG current change (%, negative = inhibition) at 1uM” value did it give?
Answer: -19.3%

Question: For `COc1c(Br)cc(Br)cc1C(=O)O`, which “hERG current change (%, negative = inhibition) at 1uM” value is on record?
Answer: 12.3%

Question: Which “hERG current change (%, negative = inhibition) at 1uM” value does the source give for `O=[N+]([O-])c1ccc(C2CCCC/C2=N/OCc2ccccc2F)c([N+](=O)[O-])c1` (stereo not shown) here?
Answer: 10.6%

Question: How did the “hERG current change (%, negative = inhibition) at 1uM” value turn out when `S=C(NCCc1ccccc1)NC1CCC(NC(=S)NCCc2ccccc2)CC1` (stereo not shown) was run?
Answer: 12.5%

Question: How did the “hERG current change (%, negative = inhibition) at 1uM” value turn out when `CCOc1cc(NC(=S)NCCCN(C)C)c(OCC)cc1NC(=O)C1CC1` was run?
Answer: 7.44%

Question: For `Cc1ccc(/C=N/c2sc3c(c2C#N)CCC3)s1`, which “hERG current change (%, negative = inhibition) at 1uM” value is on record?
Answer: -3.51%

Question: For `O=c1[nH]cc(-c2ccccc2)c(=O)[nH]1`, which “hERG current change (%, negative = inhibition) at 1uM” value is on record?
Answer: 14.8%

Question: For `C=C(C)Cn1c(N2CC(C)CC(C)C2)nc2c1c(=O)[nH]c(=O)n2C` (stereo not shown), which “hERG current change (%, negative = inhibition) at 1uM” value is on record?
Answer: 8.85%

Question: `CC1CCN(C(=O)/C=C/c2ccc(C(C)(C)C)cc2)CC1` was tested. Which “hERG current change (%, negative = inhibition) at 1uM” value did it give?
Answer: -2.14%

Question: Which “hERG current change (%, negative = inhibition) at 1uM” value does the source give for `COc1ccc(C(C)=O)cc1COC(=O)c1ccc(C)c(S(=O)(=O)N2CCOCC2)c1` here?
Answer: 1.21%

Question: Which “hERG current change (%, negative = inhibition) at 1uM” value does the source give for `O=C(N/N=C/C(Cl)=C/c1ccccc1)c1cnccn1` here?
Answer: 2.75%

Question: Which “hERG current change (%, negative = inhibition) at 1uM” value does the source give for `COc1ccc(Cn2cccc(NC(=O)Nc3ccc(C#N)cc3)c2=O)cc1` here?
Answer: 10.5%

Question: How did the “hERG current change (%, negative = inhibition) at 1uM” value turn out when `O=C(Nc1ccc(S(=O)(=O)Nc2nccs2)cc1)c1ccccc1OC(F)F` was run?
Answer: 12.2%

Question: Which “hERG current change (%, negative = inhibition) at 1uM” value does the source give for `CC(=O)c1ccc(NC(=S)N2CC(C)CC(C)C2)cc1` (stereo not shown) here?
Answer: -4.81%

Question: Which “hERG current change (%, negative = inhibition) at 1uM” value does the source give for `Oc1ccc(/C=N/n2c(COc3ccccc3)n[nH]c2=S)cc1O` here?
Answer: 13.1%

Question: `COc1ccc(-c2nnc(SC(C)C(=O)Nc3ccc4c(c3)OCCO4)o2)cc1` (stereo not shown) was tested. Which “hERG current change (%, negative = inhibition) at 1uM” value did it give?
Answer: 3.6%

Question: With `O=C(COC(=O)c1cccnc1)Nc1cccc2ccccc12` as the compound, how does the “hERG current change (%, negative = inhibition) at 1uM” value read?
Answer: 14.1%

Question: With `Cc1cccc(Oc2c(C=O)c3ccccc3n2C)c1` as the compound, how does the “hERG current change (%, negative = inhibition) at 1uM” value read?
Answer: 8.07%

Question: With `O=C(c1ccc(S(=O)(=O)N2CCCCC2)cc1)N1CCc2ccccc2C1` as the compound, how does the “hERG current change (%, negative = inhibition) at 1uM” value read?
Answer: 1.18%

Question: Which “hERG current change (%, negative = inhibition) at 1uM” value does the source give for `O=c1[nH]nc(-c2ccc(F)cc2)cc1Cc1ccc(F)cc1` here?
Answer: -2.71%

Question: Which “hERG current change (%, negative = inhibition) at 1uM” value does the source give for `Cn1c(N)c(C(=O)COC(=O)CSc2ccc(Cl)cc2)c(=O)n(C)c1=O` here?
Answer: -2.13%

Question: How did the “hERG current change (%, negative = inhibition) at 1uM” value turn out when `CCN(C(=O)c1cc2cc3ccc(C)cc3nc2o1)c1ccc(OC)cc1` was run?
Answer: 11%

Question: With `CCC1C(=O)NCCN1C(=O)CCc1nnc(CCc2ccc(OC)cc2)o1` (stereo not shown) as the compound, how does the “hERG current change (%, negative = inhibition) at 1uM” value read?
Answer: 7.04%

Question: `NC(=O)c1c(NC(=O)Cn2nc(C(=O)O)c3ccccc3c2=O)sc2c1CCCC2` was tested. Which “hERG current change (%, negative = inhibition) at 1uM” value did it give?
Answer: 17.2%
